# Measurements published in the supplement of paper PMC8728848.
# Some of the results follow.
# Experiments:
# Assay in all cases: glycan array binding signal (z-score within array); higher = stronger binding
# Conditions in all cases: glycan notation: IUPAC condensed, linker removed
# [1] = target: Gal(b1-4)GlcNAc(b1-2)Man(a1-3)[Gal(b1-4)GlcNAc(b1-2)Man(a1-6)]Man(b1-4)GlcNAc(b1-4)GlcNAc
# In short: (§1)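 Columns mapping to the same glycan were averaged after glycan names were converted to IUPAC-condensed notation. The data come from 3228 arrays in the Consortium for Functional Glycomics database, limited to those with an available protein sequence. Binding is reported as a within-array Z-score averaged across arrays of one protein sequence and across linkers.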
# [2] = target: Gal(b1-4)GlcNAc(b1-2)Man(a1-3)[Gal(b1-4)GlcNAc(b1-2)Man(a1-6)]Man(b1-4)GlcNAc(b1-4)[Fuc(a1-6)]GlcNAc
# In short: as §1
# [3] = target: Gal(b1-4)GlcNAc(b1-2)Man(a1-3)[Gal(b1-4)GlcNAc(b1-2)][GlcNAc(b1-4)]Man(b1-4)GlcNAc(b1-4)GlcNAc
# In short: as §1
# [4] = target: Gal(b1-4)GlcNAc(b1-2)Man(a1-3)[GlcNAc(b1-2)Man(a1-6)]Man(b1-4)GlcNAc(b1-4)GlcNAc
# In short: as §1
# [5] = target: Gal(b1-4)GlcNAc(b1-2)Man(a1-3)[Man(a1-6)]Man(b1-4)GlcNAc(b1-4)GlcNAc
# In short: as §1
# [6] = target: Gal(b1-4)GlcNAc(b1-2)Man(a1-6)Man(b1-4)GlcNAc(b1-4)GlcNAc
# In short: as §1
# [7] = target: Gal(b1-4)GlcNAc(b1-2)Man(a1-6)[GlcNAc(b1-2)Man(a1-3)]Man(b1-4)GlcNAc(b1-4)GlcNAc
# In short: as §1
# [8] = target: Gal(b1-4)GlcNAc(b1-2)Man(a1-6)[Man(a1-3)]Man(b1-4)GlcNAc(b1-4)GlcNAc
# In short: as §1
# [9] = target: Gal(b1-4)GlcNAc(b1-2)[Gal(b1-4)GlcNAc(b1-4)]Man(a1-3)[Gal(b1-4)GlcNAc(b1-2)Man(a1-6)]Man(b1-4)GlcNAc(b1-4)GlcNAc
# In short: as §1
# [10] = target: Gal(b1-4)GlcNAc(b1-2)[Gal(b1-4)GlcNAc(b1-4)]Man(a1-3)[Gal(b1-4)GlcNAc(b1-2)[Gal(b1-4)GlcNAc(b1-6)]Man(a1-6)]Man(b1-4)GlcNAc(b1-4)GlcNAc
# In short: as §1
# [11] = target: Gal(b1-4)GlcNAc(b1-2)[Gal(b1-4)GlcNAc(b1-4)]Man(a1-3)[GlcNAc(b1-4)][Gal(b1-4)GlcNAc(b1-2)Man(a1-6)]Man(b1-4)GlcNAc(b1-4)GlcNAc
# In short: as §1
# [12] = target: Gal(b1-4)GlcNAc(b1-2)[Gal(b1-4)GlcNAc(b1-4)]Man(a1-3)[GlcNAc(b1-4)][Gal(b1-4)GlcNAc(b1-2)[Gal(b1-4)GlcNAc(b1-6)]Man(a1-6)]Man(b1-4)GlcNAc(b1-4)GlcNAc
# In short: as §1
# [13] = target: Gal(b1-4)GlcNAc(b1-2)[Gal(b1-4)GlcNAc(b1-6)]Man(a1-6)[Gal(b1-4)GlcNAc(b1-2)Man(a1-3)]Man(b1-4)GlcNAc(b1-4)GlcNAc
# In short: as §1
# [14] = target: Gal(b1-4)GlcNAc(b1-2)[Gal(b1-4)GlcNAc(b1-6)]Man(a1-6)[GlcNAc(b1-4)][Gal(b1-4)GlcNAc(b1-2)Man(a1-3)]Man(b1-4)GlcNAc(b1-4)GlcNAc
# In short: as §1
# [15] = target: Gal(b1-4)GlcNAc(b1-3)Gal(b1-3)GlcNAc
# In short: as §1
# [16] = target: Gal(b1-4)GlcNAc(b1-3)Gal(b1-4)Glc
# In short: as §1
# [17] = target: Gal(b1-4)GlcNAc(b1-3)Gal(b1-4)GlcNAc
# In short: as §1
# [18] = target: Gal(b1-4)GlcNAc(b1-3)Gal(b1-4)GlcNAc(b1-3)Gal(b1-4)GlcNAc
# In short: as §1
# [19] = target: Gal(b1-4)GlcNAc(b1-3)Gal(b1-4)[Fuc(a1-3)GlcNAc(b1-6)]Gal(b1-4)Glc
# In short: as §1
# [20] = target: Gal(b1-4)GlcNAc(b1-3)Gal(b1-4)[Fuc(a1-3)]GlcNAc(b1-3)Gal(b1-4)[Fuc(a1-3)]GlcNAc
# In short: as §1
# [21] = target: Gal(b1-4)GlcNAc(b1-3)GalNAc
# In short: as §1
# [22] = target: Gal(b1-4)GlcNAc(b1-3)[Gal(b1-4)GlcNAc(b1-6)]Gal(b1-4)GlcNAc
# In short: as §1
# [23] = target: Gal(b1-4)GlcNAc(b1-3)[Gal(b1-4)GlcNAc(b1-6)]GalNAc
# In short: as §1
# [24] = target: Gal(b1-4)GlcNAc(b1-3)[GlcNAc(b1-6)]Gal(b1-4)GlcNAc
# In short: as §1
# [25] = target: Gal(b1-4)GlcNAc(b1-6)Gal(b1-4)GlcNAc
# In short: as §1
# [26] = target: Gal(b1-4)GlcNAc(b1-6)GalNAc
# In short: as §1
# [27] = target: Gal(b1-4)GlcNAc(b1-6)[Gal(b1-3)]GalNAc
# In short: as §1
# [28] = target: Gal(b1-6)Gal
# In short: as §1
# [29] = target: Gal3S(b1-3)GalNAc
# In short: as §1
# [30] = target: Gal3S(b1-3)GlcNAc
# In short: as §1
# [31] = target: Gal3S(b1-3)[Fuc(a1-4)]GlcNAc
# In short: as §1
# [32] = target: Gal3S(b1-4)Glc
# In short: as §1
# [33] = target: Gal3S(b1-4)Glc6S
# In short: as §1
# [34] = target: Gal3S(b1-4)GlcNAc
# In short: as §1
# [35] = target: Gal3S(b1-4)GlcNAc6S
# In short: as §1
# [36] = target: Gal3S(b1-4)[Fuc(a1-3)]Glc
# In short: as §1
# [37] = target: Gal3S(b1-4)[Fuc(a1-3)]Glc6S
# In short: as §1
# [38] = target: Gal3S4S(b1-4)GlcNAc
# In short: as §1
# [39] = target: Gal3S6S(b1-4)GlcNAc
# In short: as §1
# [40] = target: Gal3S6S(b1-4)GlcNAc6S
# In short: as §1
# [41] = target: Gal4S(b1-4)GlcNAc
# In short: as §1
# [42] = target: Gal4S6S(b1-4)GlcNAc
# In short: as §1
# [43] = target: Gal6S(b1-3)GlcNAc
# In short: as §1
# [44] = target: Gal6S(b1-3)GlcNAc6S
# In short: as §1
# [45] = target: Gal6S(b1-4)Glc
# In short: as §1
binder,measurement,setting,value
"GNAT (Pseudomonas aeruginosa), Q9HV14 (protein) MQLSHRPAETGDLETVAGFPQDRDELFYCYPKAIWPFSVAQLAAAIAERRGSTVAVHDGQVLGFANFYQWQHGDFCALGNMMVAPAARGLGVARYLIGVMENLAREQYKARLMKISCFNANAAGLLLYTQLGYQPRAIAERHDPDGRRVALIQMDKPLEP",glycan array binding signal (z-score),[1],0.642
same,glycan array binding signal (z-score),[2],1.65
same,glycan array binding signal (z-score),[3],-0.346
same,glycan array binding signal (z-score),[4],0.022
same,glycan array binding signal (z-score),[5],0.566
same,glycan array binding signal (z-score),[6],1.43
same,glycan array binding signal (z-score),[7],0.319
same,glycan array binding signal (z-score),[8],0.29
same,glycan array binding signal (z-score),[9],0.525
same,glycan array binding signal (z-score),[10],-0.343
same,glycan array binding signal (z-score),[11],2.72
same,glycan array binding signal (z-score),[12],-0.234
same,glycan array binding signal (z-score),[13],1.21
same,glycan array binding signal (z-score),[14],-0.222
same,glycan array binding signal (z-score),[15],-0.087
same,glycan array binding signal (z-score),[16],0.935
same,glycan array binding signal (z-score),[17],1.75
same,glycan array binding signal (z-score),[18],-0.351
same,glycan array binding signal (z-score),[19],0.293
same,glycan array binding signal (z-score),[20],0.003
same,glycan array binding signal (z-score),[21],-0.363
same,glycan array binding signal (z-score),[22],-0.269
same,glycan array binding signal (z-score),[23],1.36
same,glycan array binding signal (z-score),[24],0.59
same,glycan array binding signal (z-score),[25],0.092
same,glycan array binding signal (z-score),[26],0.089
same,glycan array binding signal (z-score),[27],-0.145
same,glycan array binding signal (z-score),[28],-0.102
same,glycan array binding signal (z-score),[29],-0.487
same,glycan array binding signal (z-score),[30],-0.414
same,glycan array binding signal (z-score),[31],-0.441
same,glycan array binding signal (z-score),[32],-0.394
same,glycan array binding signal (z-score),[33],3.17
same,glycan array binding signal (z-score),[34],-0.396
same,glycan array binding signal (z-score),[35],-0.322
same,glycan array binding signal (z-score),[36],-0.301
same,glycan array binding signal (z-score),[37],6.54
same,glycan array binding signal (z-score),[38],-0.461
same,glycan array binding signal (z-score),[39],-0.303
same,glycan array binding signal (z-score),[40],-0.379
same,glycan array binding signal (z-score),[41],-0.465
same,glycan array binding signal (z-score),[42],-0.427
same,glycan array binding signal (z-score),[43],-0.358
same,glycan array binding signal (z-score),[44],-0.1
same,glycan array binding signal (z-score),[45],-0.356
